1 molecule from patent US20120100139A1 (APTEVO RESEARCH AND DEVELOPMENT, published 2012) can be followed below.

As usually defined, the Kd is the equilibrium constant for the complex coming apart. Broadly, the koff is a measure of how fast the partners let go of each other. Read a high koff as fast dissociation. One may read the kon as the second-order rate constant of association. A low value points to slower complex formation.

The target in assay [1] is T1, PD1 ectodomain fused to a C-terminal AviTag, biotinylated (biotinylated on the AviTag with the BirA enzyme).
T1 construct: also called biotinylated PD1
T1 chain: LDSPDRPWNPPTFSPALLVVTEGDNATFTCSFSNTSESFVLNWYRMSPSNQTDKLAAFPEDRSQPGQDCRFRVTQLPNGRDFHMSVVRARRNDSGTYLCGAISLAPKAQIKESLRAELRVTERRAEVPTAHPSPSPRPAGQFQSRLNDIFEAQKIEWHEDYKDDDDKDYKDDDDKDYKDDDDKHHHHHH
The assay can be described thus: SPR (BIAcore T100), biotinylated PD1 captured on neutravidin; steady-state equilibrium fit. The protocol:
(§1) SPR measurements were performed on a BIAcore™ T100 SPR (Pharmacia Biotech AB, Uppsala) using HBS-P+ (GE Healthcare) as a running buffer. […] PDL1/2-containing constructs were injected for 120 seconds, at a flow rate of 30 μl/min, in a series of concentrations from 6 nM to 2 μM. Dissociation was monitored for 1200 seconds, and the surface was regenerated by injecting 50 mM NaOH, 1M NaCl for 30 seconds.
(§2) Data were analyzed using BiaEvaluation for the T100 software (version 2.0.1, GE Healthcare).

The target in assay [2] is T1, PD1 ectodomain fused to a C-terminal …. Briefly: SPR (BIAcore T100), biotinylated PD1 captured on neutravidin; bivalent analyte model, first site. The procedure:
as §1, §2
(In general: Surface plasmon resonance follows binding to a sensor surface in real time, without labels.)

B1: PDL1-Fc (Fc fusion)
chain: not shown
On to B1, for which the Kd in assay [1] is 246 nM. In assay [2], this molecule displayed a koff of 0.0544 s⁻¹ and a kon of 96000 M⁻¹ s⁻¹.
